In PubChem BioAssay AID485344 (National Center for Advancing Translational Sciences (NCATS), 2010) one finds inhibition data, which are given here for 48 molecules.

Molecules are shown by their SMILES. Among all 340,000 compounds or so, about 6,900 (2%) were called active. Cut-off read from the data, not from the text of the source: active = inhibition above about 30%; inactive = below that, where a call was filed. Only a part is listed here, and it is no random draw. Entries without a call were filed so in the source.

This assay deals with D(2) dopamine receptor (Homo sapiens) (UniProt P14416). Briefly: HTS Assay for Allosteric Antagonists of the Human D2 Dopamine Receptor: Primary Screen for Antagonists. Note: 0% is about no effect. To be noted: HEK293 TREx D2 cells, calcium flux, dopamine EC80; at 10 µM; stronger effect = higher value. The source says: NIH Chemical Genomics Center [NCGC] NIH Molecular Libraries Probe Centers Network [MLPCN] MLPCN Grant: NS064831-01 Assay Submitter (PI): David Sibley Dopamine receptors (DARs) are involved in the etiology and/or therapy of a number of neuropsychiatric and endocrine disorders. For instance, all receptor-based antiparkinsonian drugs work via stimulating the D2 DAR subtype whereas all FDA-approved antipsychotic agents are antagonists of this receptor. […] There are three different types of allosteric modulators that we are seeking, two of which will stimulate or augment receptor signaling, allosteric agonists and potentiators, while the third, allosteric antagonists, will attenuate receptor signaling. The present primary screening assay measures compound antagonism after an EC80 addition of dopamine by tracking calcium flux in a […], inducible Hek293 Trex D2 cell line.
UniProt P14416, sequence (P14416 whole entry, looked up): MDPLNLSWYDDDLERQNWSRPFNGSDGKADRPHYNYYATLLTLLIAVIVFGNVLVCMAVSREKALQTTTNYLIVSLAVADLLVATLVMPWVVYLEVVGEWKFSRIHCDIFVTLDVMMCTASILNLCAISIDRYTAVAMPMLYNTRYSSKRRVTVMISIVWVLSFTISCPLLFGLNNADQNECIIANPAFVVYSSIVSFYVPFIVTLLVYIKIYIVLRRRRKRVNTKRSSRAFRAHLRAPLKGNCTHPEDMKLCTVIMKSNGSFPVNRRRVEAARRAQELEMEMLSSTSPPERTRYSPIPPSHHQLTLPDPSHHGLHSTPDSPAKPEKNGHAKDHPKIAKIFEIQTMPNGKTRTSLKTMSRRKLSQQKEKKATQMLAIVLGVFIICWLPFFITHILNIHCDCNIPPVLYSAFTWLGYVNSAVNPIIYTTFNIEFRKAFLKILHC
Freshly passaged cells are plated in 1536 well black, clear bottom plates at a density of 4000 cells/well in 3 ul of complete media containing 1x tetracycline inducer. After an overnight incubation at 30 C in 5% CO2, cells are loaded with 2 ul of the no wash Calcium Assay Kit (ABD Bioquest) and incubated at room temperature for 30 to 90 minutes. Agonist read: A 10 cycle (1 second/cycle) baseline measurement is taken and then the FDSS online 1536 pintool delivers 23 nl of compound library (as well as dopamine controls) to the plate. The plate is measured for kinetically at 1 cycle/sec for 180 seconds. Following the 180 second read, 1 ul of an EC80 (negative modulation assay) is delivered by an onboard pipette head. Measurements are taken kinetically for an additional 180 seconds.
On the technique in general: A change in cytosolic calcium serves as a functional read-out for many receptors and channels.
The term inhibition denotes the drop in the measured response relative to a control, in per cent. As to `Cc1cccc(C(=O)NC(=O)Nc2ccc(-c3cc(C(F)(F)F)nn3-c3ccccc3)cc2)c1`, the inhibition stood at 1.59%. For the molecule `COc1ccc(C(=O)Nc2ccc(OCc3cc(=O)n4ccsc4n3)cc2)cc1OC`, the inhibition was found to be 12.8%. Regarding `CSc1ncc(Cl)c(C(=O)Nc2ccc(S(=O)(=O)N3CCCC(C)C3)cc2)n1` (stereo not drawn), the inhibition was -11.2%. Take `CCc1cccc(NC(=O)C2CCC(CNS(=O)(=O)c3csc(C(N)=O)c3)CC2)c1` (stereo not drawn): the inhibition was 9.87%. With `CCOc1cccc(C2c3[nH]c4ccccc4c3CCN2C(=O)CCC2CCCC2)c1` (stereo not drawn), the inhibition came out at 1.68%.

Regarding `COc1cc(NC(=O)C2CCCN(S(=O)(=O)c3ccc4c(c3)CCCC(=O)N4)C2)cc(OC)c1` (stereo not drawn), the inhibition stood at 11.3%. Under `COc1cc(Cl)c(C)cc1NC(=O)Cn1ncc2c(=O)oc3ccccc3c21` stands 24.6%; under `COc1ccc(-c2nc(SCC(=O)c3ccc(OC)c(Br)c3)n[nH]2)cc1`, 15.8%; under `CCC(C(=O)OC)n1cnc2c(cnn2-c2ccc(F)cc2)c1=O` (stereo not drawn), 10.4%.

As to `CCCN(CCC)c1nc(-c2ccccc2F)nc2ccccc12`, the inhibition was -3.29%.

In the case of `OC(CN1CCN(c2cccc(Cl)c2)CC1)c1ccccc1` (stereo not drawn), the inhibition was active: 52.8%. On to `O=C(CSc1nc2c([nH]c3ccccc32)c(=O)n1-c1ccc(F)cc1)NC1CCCCC1`, for which the inhibition was -13.6%. Regarding `CCc1ccccc1NC(=O)CSC1=Nc2ccccc2C2=NC(Cc3ccccc3)C(=O)N12` (stereo not drawn), the inhibition was 6.13%. With `O=C(COc1ccc([N+](=O)[O-])cc1)Nc1cccc2cccnc12` the figure was -4.65%; with `CCC(C(=O)Nc1cc(OC)c(NC(=O)c2ccccc2)cc1OC)c1ccccc1` (stereo not drawn), active: 41.9%. With `COc1ccc(OCc2ccc(-c3nc(C#N)c(N4CCN(c5cccc(Cl)c5)CC4)o3)o2)cc1` the figure was 3.87%; with `Cc1nc2sc(C(c3ccccc3)N3CCN(C)CC3)c(O)n2n1` (stereo not drawn), active: 46.7%. For the molecule `CCN(CC)C(=O)CSc1nc2cc3c(cc2c(=O)n1CCCCCC(=O)NCCc1ccc(OC)c(OC)c1)OCO3`, the inhibition is -4.13%. As for `COc1ccc(CNC(=O)c2ccc3c(c2)N(Cc2ccccc2F)C(=O)c2ccccc2S3(=O)=O)cc1`, the inhibition is 24.2%. Consider `COCCNC(=O)CCc1c(C)nc2c(c(C)nn2-c2ccc(C)cc2)c1C`, for which the inhibition is -3.27%.

Consider `Cc1cc(F)ccc1NC(=O)CN(C)S(=O)(=O)c1ccc(C(=O)N2CCOCC2)s1`, for which the inhibition was found to be 0.37%. With `N#Cc1c(C(F)(F)F)cc(-c2cccs2)nc1SCC(=O)Nc1ccc(F)cc1` the figure was -6.66%; with `CCOC(=O)N1CCc2c(sc(NCc3ccc(N(C)C)cc3)c2C(=O)Nc2ccc(OC)cc2)C1`, -9.23%. For the molecule `CC1CCc2c(sc(NC(=O)c3ccc(Cl)cc3Cl)c2C#N)C1` (stereo not drawn), the inhibition came to 17.3%. With `COc1ccc(CNC(=O)c2cc3cc(S(=O)(=O)N4CCCCC4)ccc3n2C)c(OC)c1` the figure was 7.08%. For `COc1ccc(NC(=O)CCc2c(C)nc3c(c2C)c(=O)n(C)c(=O)n3C)cc1OC`, the inhibition is -9.12%.

For the molecule `O=c1c2sc3ccccc3c2n(Cc2cccc(C(F)(F)F)c2)c(=O)n1Cc1ccccc1`, the inhibition was -10.3%. Under `Cc1c(Cl)cccc1N1C(N)=C(C#N)C(c2cc(CN3CCOCC3)cs2)C2=C1CCCC2=O` (stereo not drawn) stands -9.99%; under `COc1ccc(NC(=O)CSc2nc(-c3cccs3)cc(C(F)(F)F)c2C#N)cc1`, -0.99%. Turning to `Cc1ccc(-n2nc(C)c3c(C(=O)NCc4ccc(F)cc4)cc(C)nc32)cc1`, the inhibition is 0.697%.

Consider `Cc1cccc(N2CC(C)Cn3c2nc2c3c(=O)n(CC(=O)O)c(=O)n2C)c1` (stereo not drawn), for which the inhibition was -0.121%.

Regarding `OC(CN1CCCCC1)Cn1c2ccccc2c2cc(Br)ccc21` (stereo not drawn), the inhibition is active: 79.6%. Take `COc1ccc(CCN2CC(C(=O)NCCc3cccnc3)CCC2=O)cc1` (stereo not drawn): the inhibition is active: 31.6%. Regarding `c1ccc(-c2cnn3c(-c4ccccc4)c(-c4ccccc4)nc3n2)cc1`, the inhibition is active: 39.1%.

As for `CSc1ccc(CCNC(=O)c2ccc(CS(=O)(=O)c3ccc(Br)cc3)o2)cc1`, the inhibition was found to be 10.9%. Under `COCCNC(=O)c1cccc(Nc2nc3ccccc3n3nnnc23)c1` stands 6.99%. Regarding `CCc1cccc(NC(=O)CCc2nc3cccnc3n2-c2ccccc2)c1`, the inhibition was -5.83%. Consider `CCOc1cc(CNC(=O)c2ccc3c(c2)N(C)C(=O)C2CCCCN32)cc(OCC)c1OCC` (stereo not drawn), for which the inhibition was -2.86%. On to `O=C(Nc1ccc(F)cc1F)c1cc2c(=O)n3ccccc3nc2s1`, for which the inhibition is -1.98%. As for `COc1ccccc1NC(=O)c1ccc(COc2ccc(C)c(C)c2)o1`, the inhibition is 14.5%.

Consider `Cc1cccc(N2CCN(S(=O)(=O)c3c(C)nc4scc(C)n4c3=O)CC2)c1C`, for which the inhibition amounted to 6.5%. For the molecule `CCn1cc2nc(SCc3cc(C)ccc3C)n(CCc3ccccc3)c(=O)c2n1`, the inhibition is -4.17%. For the molecule `CCCCn1c(=O)c2oc3ccccc3c2n(CC(=O)Nc2ccc(CC)cc2)c1=O`, the inhibition turned out to be 3.71%. Regarding `CCCCn1c(=N)n(CCCOc2ccc(F)cc2)c2ccccc21`, the inhibition was -1.51%. As for `CCS(=O)(=O)Nc1ccc(-c2cn3ccsc3n2)cc1`, the inhibition was -4.42%. Consider `COc1ccc(-c2nc3sc(CCNC(=O)c4ccco4)c(C)n3n2)cc1`, for which the inhibition was determined as 2.19%. For `Cn1cc(CN(C(=O)Nc2ccccc2)C2CCCCC2)c2ccccc21`, the inhibition turned out to be 14.2%. As to `COc1cc2c(cc1OC)CN(C(=O)Nc1ccccc1)CC2`, the inhibition is -10.9%.
